# Laboratory results taken from the supplement of paper PMC10037445.
# In all, about 2,900 compounds were measured (“IRF Lucia reporter activity, fold change vs agonist alone”: median about 0.9, highest 2% from about 2.8 on). Some of the results follow.
# Tests used:
# [1] = test system: RAW-Dual; test: IRF Lucia reporter activity, fold change vs agonist alone; cytotoxicity flag (confluency mask): not cytotoxic; higher = enhanced IRF activity
# In short: (§1)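 Supernatant from RAW-Dual macrophages was read after 20 hours for IRF by QuantiLuc luminescence and for NF-κB by QuantiBlue absorbance at 620 nm. The cells (50,000 cells/well in DMEM, 384-well plates, 37 °C, 5% CO2) had received 50 nL of library stock by pin tool and, 1 h later, a PRR agonist. Reporter activity is expressed relative to agonist-alone wells as fold change, and wells were flagged cytotoxic if IncuCyte confluency was under 70% of agonist controls in both mask sets.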
# [2] = test system: RAW-Dual; test: IRF Lucia reporter activity, fold change vs agonist alone; higher = enhanced IRF activity; conditions: agonist: MPLA (TLR4) […]
# In short: as §1
# [3] = test system: RAW-Dual; test: IRF Lucia reporter activity, fold change vs agonist alone; cytotoxicity flag (confluency mask): cytotoxic (confluency <70% of control); higher = enhanced IRF activity
# In short: as §1
# [4] = agonist: 3'3'-cGAMP (STING) 10 ug/mL
# [5] = library stock concentration (final ~1000-fold dilution): 10 mM, cytotoxicity flag (confluency mask): not cytotoxic
# [6] = library stock concentration (final ~1000-fold dilution): 10 mM, cytotoxicity flag (confluency mask): cytotoxic (confluency <70% of control)
structure (smiles),measurement,setting,value
CC=CCC(C)C(O)C1C(=O)NC(CC)C(=O)N(C)CC(=O)N(C)C(CC(C)C)C(=O)NC(C(C)C)C(=O)N(C)C(CC(C)C)C(=O)NC(C)C(=O)NC(C)C(=O)N(C)C(CC(C)C)C(=O)N(C)C(CC(C)C)C(=O)N(C)C(C(C)C)C(=O)N1C (stereo not given) (library stock concentration (final ~1000-fold dilution): 10 mM),IRF Lucia reporter activity,[1]; [4],0.661
same,IRF Lucia reporter activity,[1]; agonist: LPS (TLR4) 0.1 ug/mL,1.03
CC=CCC(C)C(O)C1C(=O)NC(CC)C(=O)N(C)CC(=O)N(C)C(CC(C)C)C(=O)NC(C(C)C)C(=O)N(C)C(CC(C)C)C(=O)NC(C)C(=O)NC(C)C(=O)N(C)C(CC(C)C)C(=O)N(C)C(CC(C)C)C(=O)N(C)C(C(C)C)C(=O)N1C (stereo not given),IRF Lucia reporter activity,[2]; [5],0.735
COc1ccc(C(NC(=O)c2cnc(-c3cccnn3)nc2O)c2ccc(OC)cc2)cc1 (library stock concentration (final ~1000-fold dilution): 10 mM),IRF Lucia reporter activity,[1]; [4],0.924
same,IRF Lucia reporter activity,[1]; agonist: LPS (TLR4) 0.1 ug/mL,1.03
CCOc1cc(C(CS(C)(=O)=O)N2C(=O)c3cccc(NC(C)=O)c3C2=O)ccc1OC (stereo not given) (library stock concentration (final ~1000-fold dilution): 10 mM),IRF Lucia reporter activity,[1]; [4],0.968
same,IRF Lucia reporter activity,[1]; agonist: LPS (TLR4) 0.1 ug/mL,0.75
CCOc1ccc2ccccc2c1C(=O)NC1C(=O)N2C1SC(C)(C)C2C(=O)O (stereo not given),IRF Lucia reporter activity,[2]; [5],1.16
CCOc1ccc2ccccc2c1C(=O)NC1C(=O)N2C1SC(C)(C)C2C(=O)O (stereo not given) (library stock concentration (final ~1000-fold dilution): 10 mM),IRF Lucia reporter activity,[1]; [4],1.09
same,IRF Lucia reporter activity,[1]; agonist: LPS (TLR4) 0.1 ug/mL,1.27
O=C(N/N=C/c1ccc([N+](=O)[O-])o1)c1ccc(O)cc1,IRF Lucia reporter activity,[2]; [6],1.32
O=C(N/N=C/c1ccc([N+](=O)[O-])o1)c1ccc(O)cc1 (library stock concentration (final ~1000-fold dilution): 10 mM),IRF Lucia reporter activity,[3]; [4],0.611
same,IRF Lucia reporter activity,[3]; agonist: LPS (TLR4) 0.1 ug/mL,1.12
Cc1cc(NC(=O)c2cccc(NC(=O)/C=C/CN(C)C)c2)ccc1Nc1nccc(-c2cccnc2)n1 (library stock concentration (final ~1000-fold dilution): 10 mM),IRF Lucia reporter activity,[1]; [4],0.0822
same,IRF Lucia reporter activity,[1]; agonist: LPS (TLR4) 0.1 ug/mL,0.143
Cc1cc(NC(=O)c2cccc(NC(=O)/C=C/CN(C)C)c2)ccc1Nc1nccc(-c2cccnc2)n1,IRF Lucia reporter activity,[2]; [5],0.264
CCOc1cc2ncc(C#N)c(Nc3ccc(OCc4ccccn4)c(Cl)c3)c2cc1NC(=O)/C=C/CN(C)C,IRF Lucia reporter activity,"[2]; library stock concentration (final ~1000-fold dilution): 2 mM, cytotoxicity flag (confluency mask): not cytotoxic",0.922
CCOc1cc2ncc(C#N)c(Nc3ccc(OCc4ccccn4)c(Cl)c3)c2cc1NC(=O)/C=C/CN(C)C (library stock concentration (final ~1000-fold dilution): 2 mM),IRF Lucia reporter activity,[1]; [4],0.302
same,IRF Lucia reporter activity,[1]; agonist: LPS (TLR4) 0.1 ug/mL,0.0254
Oc1cc(CNC(=S)/C=C/c2cc(O)c(O)c(Br)c2)cc(O)c1O (library stock concentration (final ~1000-fold dilution): 10 mM),IRF Lucia reporter activity,[1]; [4],0.312
same,IRF Lucia reporter activity,[1]; agonist: LPS (TLR4) 0.1 ug/mL,4.35
COc1cc(OC)c(/C=C2/C(=O)Nc3ccccc32)c(OC)c1 (library stock concentration (final ~1000-fold dilution): 10 mM),IRF Lucia reporter activity,[1]; [4],0.185
same,IRF Lucia reporter activity,[1]; agonist: LPS (TLR4) 0.1 ug/mL,1.39
CC(C)(C)NCC(O)COc1nsnc1N1CCOCC1.O=C(O)/C=C\C(=O)O (stereo not given),IRF Lucia reporter activity,[2]; [5],1.01
CC(C)(C)NCC(O)COc1nsnc1N1CCOCC1.O=C(O)/C=C\C(=O)O (stereo not given) (library stock concentration (final ~1000-fold dilution): 10 mM),IRF Lucia reporter activity,[1]; [4],1.04
same,IRF Lucia reporter activity,[1]; agonist: LPS (TLR4) 0.1 ug/mL,0.977
O=C(NC(NC(=S)Nc1ccc(F)c([N+](=O)[O-])c1)C(Cl)(Cl)Cl)C(c1ccccc1)c1ccccc1 (stereo not given),IRF Lucia reporter activity,[2]; [6],0.22
O=C(NC(NC(=S)Nc1ccc(F)c([N+](=O)[O-])c1)C(Cl)(Cl)Cl)C(c1ccccc1)c1ccccc1 (stereo not given) (library stock concentration (final ~1000-fold dilution): 10 mM),IRF Lucia reporter activity,[3]; [4],0.0204
same,IRF Lucia reporter activity,[3]; agonist: LPS (TLR4) 0.1 ug/mL,0.154
CC1OC(OC2C(Oc3cc(O)c4c(c3)OC(c3ccc(O)cc3)CC4=O)OC(CO)C(O)C2O)C(O)C(O)C1O (stereo not given),IRF Lucia reporter activity,[2]; [5],1.04
CC1OC(OC2C(Oc3cc(O)c4c(c3)OC(c3ccc(O)cc3)CC4=O)OC(CO)C(O)C2O)C(O)C(O)C1O (stereo not given) (library stock concentration (final ~1000-fold dilution): 10 mM),IRF Lucia reporter activity,[1]; [4],1.03
same,IRF Lucia reporter activity,[1]; agonist: LPS (TLR4) 0.1 ug/mL,0.903
COC1=C2CC(C)CC(OC)C(O)C(C)/C=C(\C)C(OC(N)=O)C(OC)/C=C/C=C(\C)C(=O)NC(=CC1=O)C2=O (stereo not given),IRF Lucia reporter activity,[2]; [6],0.507
COC1=C2CC(C)CC(OC)C(O)C(C)/C=C(\C)C(OC(N)=O)C(OC)/C=C/C=C(\C)C(=O)NC(=CC1=O)C2=O (stereo not given) (library stock concentration (final ~1000-fold dilution): 10 mM),IRF Lucia reporter activity,[3]; [4],0.309
same,IRF Lucia reporter activity,[3]; agonist: LPS (TLR4) 0.1 ug/mL,0.0119
O=C1Nc2cc(Br)ccc2/C1=C1/Nc2ccccc2/C1=N\O,IRF Lucia reporter activity,[2]; [6],0.0228
O=C1Nc2cc(Br)ccc2/C1=C1/Nc2ccccc2/C1=N\O (library stock concentration (final ~1000-fold dilution): 10 mM),IRF Lucia reporter activity,[3]; [4],0.0195
same,IRF Lucia reporter activity,[3]; agonist: LPS (TLR4) 0.1 ug/mL,0.0144
Cn1cc(C2=C(c3ccc(Cl)cc3Cl)C(=O)NC2=O)c2ccccc21 (library stock concentration (final ~1000-fold dilution): 10 mM),IRF Lucia reporter activity,[1]; [4],0.971
same,IRF Lucia reporter activity,[1]; agonist: LPS (TLR4) 0.1 ug/mL,0.887
